Data on 4 compounds can be found in PubChem BioAssay AID1918939 (Molecular Pharmacology Branch, DTP, NCI, 2023).

Not every entry of the source has a single result; some have several. This is not the full list of results. An entry can have further records. Values that stand side by side are repeats across runs, samples, wells, individuals or studies. Additions like (4×) give the number of equal values in this list. Marks such as [2022-09] give the month of the run.

In this test the test system is 653999-131-R-J2-PDC complex spheroid viability. Put plainly: Anticancer human tumor 653999-131-R-J2-PDC patient-derived lung adenocarcinoma cell line growth inhibition. The settings on record: for viability, T/C: stronger effect = lower value. From the text:
Multicellular complex tumor spheroid response to LSD1 Inhibitor Iadademstat in combination with a variety of drugs and investigational agents in selected tumor cell lines
The current study was undertaken to assess response to LSD1 inhibitors in combination with standard-of-care drugs and investigational agents in solid tumor complex spheroid models as well as in the K-562 leukemia. Complex spheroids include a stromal component modeled by human endothelial cells (HUVEC) and fibroblasts modeled by human mesenchymal stem cells (MSCs). The concentration ranges selected for each drug and investigational agent were based upon clinically achievable concentrations if the clinical Cmax of the agent was known.
Compounds. The drugs and investigational agents used in this study are listed on Table 1. All of the agents used, including staurosporine (NSC755774) and gemcitabine (NSC613327), were obtained from the Developmental Therapeutics Program, NCI. FDA-approved anticancer drugs are available from the NCI at http://dtp.nci.nih.gov/branches/dscb/oncology_drugset_explanation.html. Drugs and investigational agents were >95% pure by proton nuclear magnetic resonance (NMR) and liquid chromatography/mass spectrometry (LC/MS). Stock solutions were prepared at 400x in DMSO, stored at -70 degrees C, and diluted in fresh medium prior to their use. The final concentration of DMSO in cell culture wells never exceeded 0.25% (v/v). The FDA-approved anticancer drug set is available from the Developmental Therapeutics Program at https://dtp.cancer.gov/organization/dscb/obtaining/available_plates.htm. All drugs and investigational agents were tested over a range starting from a high concentration at or near the clinical Cmax and decreasing in half-log increments. If the clinical Cmax for an agent had not been determined, the highest concentration tested was 10 microM.
Cell Lines. The patient-derived cancer cell (PDC) lines: 292921-168-R-J2-PDC, K24384-001-R-PDC, and 521955-158-R2-J5-PDC pancreatic carcinomas, 556581-035-R-J1 ovarian carcinoma, 324938-238-R-J1-PDC, 855422-203-R-J1-PDC and 883617-216-R-J1-PDC urothelial bladder carcinomas, 743489-274-T-PDC renal cell carcinoma, 138582-R-J1 Merkel cell tumor, K60290-347-R-J1 and K57222-313-R-J1-PDC glioblastomas, 653999-131-R-J2-PDC, LG0703-F948-PDC, and 349418-098-R-PDC non-small cell lung carcinomas, 885512-296-R-J2-PDC, 171881-019-R-J1-PDC breast carcinomas and 186277-243-T-J2-PDC and 233499-124-R-J2-PDC colon carcinomas were obtained from the NCI Patient-Derived Models Repository (PDMR, https://pdmr.cancer.gov). The established cell lines NCI/ADR-RES (RRID:CVCL_14520 and OVCAR-5 (RRID:CVCL_1628) ovarian carcinomas, 786-O (RRID:CVCL_1051) and A498 (RRID:CVCL_A498) renal cell carcinoma, NCI-H211 (ATCC, cat. CRL-5824; RRID:CVCL_1529), NCI-H196 (ATCC, cat. CRL-5823, RRID:CVCL_1509), SW 1271 (ATCC, cat. CRL-2177, RRID:CVCL_1716) and NCI-H1876 (ATCC, cat. CRL-5902, RRID:CVCL_1503) small cell lung carcinomas, MDA-MB-231 (RRID:CVCL_0062) and MDA-MB-468 (RRID:CVCL_0419)breast carcinomas (10-12). Pooled donor human umbilical vein endothelial cells (HUVEC, Lonza, cat. CC-2519) and human mesenchymal stem cells (hMSC, Lonza, cat. PT-2501) were purchased from Lonza (Walkersville, MD).
Cell Culture. All cells were maintained in an incubator at 37 degrees C and 5% CO2 with 95% humidity. The PDC lines were cultured according to standard operating procedures established by the NCI PDMR (https://pdmr.cancer.gov). Briefly all PDCs were thawed and cultured in Matrigel-coated flasks prepared with a working solution of 1X Ham's F-12 nutrient mix, without supplementation (Invitrogen, Waltham, MA, cat. 11765054), 100 U/mL penicillin-streptomycin (Invitrogen, cat. 15140122), and 2.5% Matrigel (Corning Inc., Corning, NY, cat. 354248) for the first three passages. […]
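Note: spheroids exposed to agents for seven days before readout.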

For `O=C(C=Cc1cccc(S(=O)(=O)Nc2ccccc2)c1)NO`, the viability, T/C (compound alone 3 µM) is 2.26% [2022-01] and 95.6% [2022-02].

As for `NC1CCC(NC2CC2c2ccccc2)CC1` (centres undefined), the viability, T/C is, setting by setting: (compound alone 0.1 µM) 89.5, 92.1, 86.1, 87.1, 106, 101 (2×), 91, 83.7, 88.9, 79.8, 82.7, 80.4, 92.8, 84, 85.4, 84.6 (2×), 84.2, 97.1, 90.3, 104, 81.2, 96, 90.2%; (compound alone 3.16 µM) 85.8, 102, 92.9, 96.3, 81.3, 106, 66.8, 90.2, 95.9, 83.9, 93, 88.3, 92.7, 86.1, 111, 81.8, 78.9, 91, 96.5, 80.6, 96.8, 71.3, 107, 104, 77.8%; (compound alone 10 µM) 101 (2×), 74.5, 99.4, 81.1, 109 (2×), 73.8, 82.5, 92.3, 80.7, 85.3, 75.3, 94.6, 71.8, 80.4, 95.9, 80.6, 125, 72.5, 110, 106, 83.7%.

For `Nc1ccn(C2OC(CO)C(O)C2(F)F)c(=O)n1` (centres undefined), the IC50 (compound alone) is 7.27 nM [2022-01] and > 300 nM [2022-02].

Regarding `NC1CC1c1ccc(-c2cccc(O)c2)cc1` (centres undefined), the viability, T/C by setting is: (compound alone 0.316 µM) 83.5, 100, 87.7, 82.5, 94.4, 82.7, 85.2, 79.4, 87, 83.9, 92.3, 76.7, 90.6, 77 (2×), 79.5, 104, 91.4, 89.4, 82.8, 81.9 (2×), 95.4, 78.6, 82.4%; (compound alone 1 µM) 95.8, 88.8, 85.8, 75.3, 100, 82.8, 73.9, 88.7, 66.5, 75.6, 83.3, 88, 92.1 (2×), 86.5, 82.2, 88.5, 96.1, 88.3 (2×), 96.2, 80.7, 86, 77.3, 75%; (compound alone 3.16 µM) 93.8, 93.3, 98.2, 81.6, 87, 86.6, 92.8 (2×), 86.2, 81, 79.5, 86.5, 83.3, 87.6, 71.4, 81.2, 88.6, 86.9, 105, 73.7, 72.8, 99.1, 76.6, 67, 73.2%; (compound alone 10 µM) 88.1, 91.9, 79.1, 87, 86.6, 88.4, 87.4, 78.7, 82.7, 77.4, 80.5, 74.8, 71, 79.3, 83.9, 78.6, 92.6, 94.6, 95.7, 81.4, 69.2, 96.9, 79.2, 74, 69%.
